# Reference: PubChem BioAssay AID2675 (National Center for Advancing Translational Sciences (NCATS), 2010)
# Several values for one entry are separate records, joined by “and”; a condition that tells them apart may be missing. Equal entries are not always repeated. Screen size: about 280,000 compounds; about 100 (0.036%) were called active. The inconclusive results got no clear call from the source; some entries with a clear call stand among them for comparison. The call rests on the fitted dose curve; in most records, active means well fitted inhibition curve with a large enough effect in the signal ratio, with a control signal flat (not every such curve was filed as active); inconclusive means small, poorly fitted or top-dose-only effect, or effect the other way, or a change in a side signal; inactive means no such curve, though single readings can be large or run the other way; the % refers to the signal ratio. Potencies of inconclusive entries are doubtful fits and often do not repeat. “Side channel” marks fits to a control or component signal instead of the main read-out.
# Biological target: Muscleblind-like protein 1 (Homo sapiens) (UniProt Q9NR56)
# Chain of UniProt Q9NR56 (Q9NR56 whole entry, looked up): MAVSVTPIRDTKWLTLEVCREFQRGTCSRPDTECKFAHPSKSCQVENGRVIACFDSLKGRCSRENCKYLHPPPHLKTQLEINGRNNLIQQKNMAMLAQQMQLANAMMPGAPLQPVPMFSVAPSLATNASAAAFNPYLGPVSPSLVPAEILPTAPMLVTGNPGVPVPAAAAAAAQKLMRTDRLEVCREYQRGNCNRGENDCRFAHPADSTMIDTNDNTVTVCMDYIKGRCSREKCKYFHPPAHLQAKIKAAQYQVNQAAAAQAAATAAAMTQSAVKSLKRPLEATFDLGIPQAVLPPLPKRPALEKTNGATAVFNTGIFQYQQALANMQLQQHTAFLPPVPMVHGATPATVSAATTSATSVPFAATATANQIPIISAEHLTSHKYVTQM
# Assay: qHTS Assay for Inhibitors of MBNL1-poly(CUG) RNA binding
# Details: TR-FRET MBNL1-His/biotin-(CUG)12 binding, 665/545 ratio; series mostly up to 57.5 µM
# In short: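 Ratiometric TR-FRET (665 over 545 nm, excitation 340 nm) tracks disruption of MBNL1-His/biotin-(CUG)12 complex after 60 min at room temperature, with compounds at 92 nM to 58 uM final.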
# Potency means the concentration at half of the fitted maximal effect; tags describe the fitted curve by direction and shape or compound fluorescence and quenching.
row,SMILES,Potency
1,Cc1ccc(C)c(NC(=O)c2ccc3nccnc3c2)c1,"inconclusive: 22.4 µM [quencher, side channel, partial curve]"
2,COC(=O)c1sc(-c2ccc(C(C)(C)C)cc2)cc1NC(=O)CSCC(=O)O,inactive
3,Cc1cc(C)c(C(=O)CC(=O)c2ccccc2Cl)c(O)c1,inactive
4,COc1ccc(Cl)cc1NC(=O)c1cnc2n(c1=O)CCS2,"inconclusive: 31.6 µM [fluorescent, side channel, single point]"
5,CCN1/C(=C2\C(=O)N(C)C(=S)N2C)C=Cc2ccccc21,"inconclusive: 3.16 µM [quencher, side channel, partial curve]"
6,OCc1ccccc1OCCOc1ccc(Cl)c2cccnc12,"inconclusive: 35.5 µM [quencher, side channel, single point]"
7,COCCCN1C(=O)c2ccc(C(=O)Nc3ccccc3OC)cc2C1=O,"inconclusive: 14.1 µM [quencher, side channel, partial curve]"
8,O=C(CC(SCCO)c1ccc([N+](=O)[O-])cc1)c1ccco1 (stereo not given),"inconclusive: 10 µM [quencher, side channel, partial curve]"
9,COc1ccc(C(=O)C[n+]2ccc(-c3nnc4n3CCC4)cc2)cc1,"inconclusive: 11.2 µM [quencher, side channel, partial curve]"
10,Cc1ccc(NCC(O)Cn2cnc3c2c(=O)n(C)c(=O)n3C)cc1 (stereo not given),inactive
11,CSC(=CC(=O)c1ccccc1)SC,"inconclusive: 35.5 µM [quencher, side channel, single point]"
12,CC1(C)CC(=O)C(N=Nc2ccc(-c3ccccc3)cc2)=C(O)C1,"inconclusive: 3.98 µM [quencher, side channel, partial curve]"
13,O=C(CCN1C(=O)C2C3C=CC(C3)C2C1=O)N1CCN(c2ccc([N+](=O)[O-])cc2)CC1 (stereo not given),"inconclusive: 14.1 µM [quencher, side channel, partial curve]"
14,O=C(c1cc2c(=O)n3ccccc3nc2s1)N1CCN(Cc2ccccc2)CC1,"inconclusive: 25.1 µM [quencher, partial curve]"
15,COc1cc(/C=C/C(=O)Nc2ccc(C(C)=O)cc2)cc(OC)c1OC,"inconclusive: 14.1 µM [quencher, side channel, single point]"
16,COc1ccc(C(=O)O/N=C(\N)Cc2ccc(Cl)cc2)cc1OC,inactive
17,O=C1c2ccccc2C(=O)N1CCc1nc(-c2ccccn2)no1,"inconclusive: 15.8 µM [quencher, side channel, partial curve, poor fit]"
18,CN(C(=O)C1CCCN(S(=O)(=O)c2cccc([N+](=O)[O-])c2)C1)C1CCS(=O)(=O)C1 (stereo not given),"inconclusive: 28.2 µM [quencher, side channel, single point]"
19,COCCNC(=O)c1c(N)n(CCCn2ccnc2)c2nc3ccccc3nc12,"inconclusive: 35.5 µM [quencher, side channel, single point]"
20,COC(=O)CSc1nc2c(cnn2-c2ccc(F)cc2)c(=O)[nH]1,inactive

row,SMILES,Potency
1,Nc1cc(C(=O)N2CCN(c3ccc([N+](=O)[O-])cc3)CC2)ccc1N1CC2CC(C1)c1cccc(=O)n1C2 (stereo not given),"inconclusive: 31.6 µM [quencher, side channel, single point]"
2,O=C(Nc1cccc(F)c1)Nc1ccnn1C1CCN(C(=O)c2cscn2)CC1,"inconclusive: 63.1 µM [inhibitor, partial curve]"
3,COc1cccc(NC(=O)C2CCN(S(=O)(=O)c3ccc4c(c3)NC(=O)CO4)CC2)c1,inactive
4,O=C(CO/N=C1\CCCc2nonc21)Nc1ccc(Br)cc1,inactive
5,CCOc1cc(/C=C2\N=C(SC)SC2=O)cc([N+](=O)[O-])c1OC(C)=O,"inconclusive: 20 µM [quencher, side channel, partial curve]"
6,CCC(=O)Nc1cccc(-c2cnc3ccccc3n2)c1,"inconclusive: 14.1 µM [quencher, side channel, partial curve]"
7,O=C(NCc1ccco1)C1CCN(S(=O)(=O)c2cccc([N+](=O)[O-])c2)CC1,"inconclusive: 17.8 µM [quencher, side channel, partial curve]"
8,Cc1ccc(C(=O)Nc2nc3ccc(S(C)(=O)=O)cc3s2)s1,inactive
9,CC(C)CN(Cc1c(O)ccc2c3c(c(=O)oc12)CCC3)CC(C)C,inactive
10,CC1=C(C(=O)OCc2ccccc2)C(c2ccc([N+](=O)[O-])cc2)NC(=O)N1CCCCCC(=O)O (stereo not given),"inconclusive: 15.8 µM [quencher, side channel, partial curve]"
11,C/C(=N/NC(N)=S)c1ccc(Br)s1,"inconclusive: 22.4 µM [quencher, side channel, partial curve]"
12,c1ccc(Cn2ncc3c(NCc4ccco4)ncnc32)cc1,inactive
13,COc1ccc(NC(=O)COC(=O)CCc2ccccc2)c(OC)c1,inactive
14,Cc1noc(C)c1COC(=O)c1ccc2ccccc2n1,"inconclusive: 17.8 µM [quencher, side channel, partial curve]"
15,COc1ccc(C(=O)N/N=C/c2ccc3cccc(O)c3n2)cc1,"inconclusive: 22.4 µM [quencher, side channel, single point]"
16,Cc1c(C(c2ccc(N(C)C)cc2)c2c(C)n(C)n(-c3ccccc3)c2=O)c(=O)n(-c2ccccc2)n1C,"inconclusive: 6.31 µM [quencher, side channel, full curve]"
17,Cc1ccc(NC(=O)c2cccc3c2-c2ccccc2C3=O)cc1C,"inconclusive: 11.2 µM [quencher, side channel, partial curve]"
18,COC(=O)Cc1c(C)nc2nc(-c3ccco3)[nH]n2c1=O,"inconclusive: 63.1 µM [inhibitor, single point]"
19,CNC(=O)/C(C#N)=C/c1ccc(-c2ccc(OC)cc2[N+](=O)[O-])o1,"inconclusive: 10 µM [quencher, partial curve]"
20,O=C(Oc1ccccc1C(=S)N1CCCCC1)c1cc([N+](=O)[O-])cc([N+](=O)[O-])c1,"inconclusive: 7.94 µM [quencher, side channel, partial curve]"

row,SMILES,Potency
1,CNC(=O)c1nnsc1S(=O)c1ccc(Cl)cc1 (stereo not given),inactive
2,CC(=O)c1sc(NC(=O)CCNC(=O)c2ccco2)nc1-c1ccccc1,"inconclusive: 25.1 µM [quencher, side channel, partial curve]"
3,O=C(O)CNC(=O)/C(=C/c1ccco1)NC(=O)/C=C/c1ccccc1,"inconclusive: 0.708 µM [quencher, side channel, full curve, poor fit]"
4,CCCCN(C)C1=Nc2cccc3cccc1c23,"inconclusive: 28.2 µM [quencher, side channel, single point]"
5,CCCCC(=O)NNC(=S)NC(=O)c1cccc([N+](=O)[O-])c1,"inconclusive: 15.8 µM [quencher, side channel, partial curve]"
6,COc1ccc(NC(=O)CCC(=O)OCc2ccc([N+](=O)[O-])cc2)cc1,"inconclusive: 15.8 µM [quencher, side channel, partial curve]"
7,Cc1ccc(NC2=CC(=O)CC(c3ccc(Cl)cc3)C2)cc1 (stereo not given),"inconclusive: 3.55 µM [fluorescent, side channel, single point]"
8,COc1ccc(/C=C/C(=O)NCC(=O)N/N=C(/C)c2ccco2)cc1,"inconclusive: 39.8 µM [quencher, side channel, partial curve, poor fit]"
9,O=C(c1ccc(-c2ccc([N+](=O)[O-])cc2Cl)o1)N1CCOCC1,"inconclusive: 7.08 µM [quencher, side channel, partial curve]"
10,CC(=O)Nc1ccc(NC(=O)c2ccc([N+](=O)[O-])cc2Cl)cc1,"inconclusive: 15.8 µM [quencher, side channel, partial curve]"
11,COc1ccc(/C=C(/NC(=O)c2cccs2)C(=O)NCc2ccco2)cc1OC,"inconclusive: 20 µM [quencher, side channel, partial curve]"
12,Cc1ccsc1/C=N/NC(=O)CNC(=O)c1ccccc1,"inconclusive: 35.5 µM [quencher, side channel, single point]"
13,CCC(C(=O)Nc1ccc(OC)c(Cl)c1)c1ccccc1 (stereo not given),"inconclusive: 0.141 µM [quencher, side channel, full curve]"
14,O=[N+]([O-])c1ccc2c(c1)CNc1ccccc1O2,"inconclusive: 25.1 µM [quencher, partial curve]"
15,NC(=O)c1ccc(NC(=O)COc2ccc([N+](=O)[O-])cc2Cl)cc1,"inconclusive: 7.08 µM [quencher, side channel, partial curve]"
16,Fc1ccccc1NC(=S)NCc1ccccc1,inactive
17,O=Nc1c(-c2c(O)[nH]c3cc(Br)ccc23)[nH]c2ccccc12,"inconclusive: 14.1 µM [quencher, side channel, partial curve] and inconclusive: 39.8 µM [quencher, single point]"
18,Brc1cccc(-c2cnc3n2CCCCC3)c1,inactive
19,C[C@H](NC(=O)c1nc[nH]c1C(=O)NC1CCN(C(=O)OC(C)(C)C)CC1)C(=O)OCc1ccccc1,inactive
20,O=C1C(Cl)=C(N2CCCCC2)C(=O)N1c1ccccc1,"inconclusive: 15.8 µM [quencher, side channel, partial curve]"
